# Measurements taken from the supplement of paper PMC8728848.
# About 410 targets per protein were measured; listed, in parts, are those with the strongest signals and a random draw of the rest.
# B1: Fc-marm-DC-ASGPR (protein)
# chain: [in this place human IgG1 Fc and a few adjoining residues]ASSKFQRDLVTLRTDFSNFTSNTLAEIQALTSQGSSLQETIASLKAEVEGHKQELQAGASELQEHNKQKAHLGRCPHTCVCPSSFVCVPVHSEILLRVQQLVQDLNKLSCQVAILKNNATTERTCCPINWVEHQGSCYWFSRSGKTWPEAERYCQLENTHLVVINSREEQNFVQAHLGSAYTWMGLSDPEGVWKWVDGTDYSSGFQNWKPGQPDDWQGHGLGGGEDCAHFHPDGRWNDDVCQRSYHWVCEAGLTQASQDSHAS
# What was measured:
# Experiment in all cases: glycan array binding signal (z-score within array); higher = stronger binding
# Details in all cases: glycan notation: IUPAC condensed, linker removed
# [1] = target: Fuc(a1-2)Gal(b1-3)GalNAc
# How it was run: (§1)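 The binding signal is a Z-score computed within each array. Data were drawn from 3228 arrays in the Consortium for Functional Glycomics database, restricted to those with a known protein sequence. Scores were averaged over arrays of the same protein sequence at different concentrations or buffers, and over linkers, and negative values can be taken as non-binding.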
# [2] = target: Fuc(a1-2)Gal6S(b1-4)Glc6S
# How it was run: as §1
# [3] = target: Fuc(a1-2)[Gal(a1-3)]Gal(b1-3)GalNAc(b1-3)Gal(a1-4)Gal(b1-4)Glc
# How it was run: as §1
# [4] = target: Fuc(a1-2)[Gal(a1-3)]Gal(b1-4)Glc
# How it was run: as §1
# [5] = target: Fuc(a1-2)[GalNAc(a1-3)]Gal(b1-4)GlcNAc(b1-2)Man(a1-3)[Fuc(a1-2)[GalNAc(a1-3)]Gal(b1-4)GlcNAc(b1-2)Man(a1-6)]Man(b1-4)GlcNAc(b1-4)GlcNAc
# How it was run: as §1
# [6] = target: Fuc(a1-3)[GalNAc(b1-4)]GlcNAc
# How it was run: as §1
# [7] = target: Gal(a1-3)Gal(b1-4)GlcNAc
# How it was run: as §1
# [8] = target: Gal(a1-4)Gal(b1-4)GlcNAc(b1-3)Gal(b1-4)Glc
# How it was run: as §1
# [9] = target: Gal(b1-3)Gal(b1-4)GlcNAc
# How it was run: as §1
# [10] = target: Gal(b1-3)GalNAc(b1-3)Gal
# How it was run: as §1
# [11] = target: Gal(b1-3)[Neu5Ac(a2-6)]GalNAc
# How it was run: as §1
# [12] = target: Gal(b1-4)GlcNAc(b1-2)Man(a1-3)[Gal(b1-4)GlcNAc(b1-2)Man(a1-6)][GlcNAc(b1-4)]Man(b1-4)GlcNAc(b1-4)[Fuc(a1-6)]GlcNAc
# How it was run: as §1
# [13] = target: Gal(b1-4)GlcNAc(b1-2)[Gal(b1-4)GlcNAc(b1-6)]Man(a1-6)[Gal(b1-4)GlcNAc(b1-2)Man(a1-3)]Man(b1-4)GlcNAc(b1-4)[Fuc(a1-6)]GlcNAc
# How it was run: as §1
# [14] = target: Gal(b1-4)GlcNAc(b1-3)Gal(b1-4)GlcNAc(b1-3)Gal(b1-4)GlcNAc
# How it was run: as §1
# [15] = target: Gal(b1-4)GlcNAc(b1-3)Gal(b1-4)GlcNAc(b1-3)Gal(b1-4)GlcNAc(b1-3)Gal(b1-4)GlcNAc(b1-2)Man(a1-3)[Gal(b1-4)GlcNAc(b1-3)Gal(b1-4)GlcNAc(b1-3)Gal(b1-4)GlcNAc(b1-3)Gal(b1-4)GlcNAc(b1-2)Man(a1-6)]Man(b1-4)GlcNAc(b1-4)[Fuc(a1-6)]GlcNAc
# How it was run: as §1
# [16] = target: Gal(b1-4)GlcNAc(b1-3)[GlcNAc(b1-6)]Gal(b1-4)GlcNAc
# How it was run: as §1
# [17] = target: Gal3S(b1-4)GlcNAc
# How it was run: as §1
# [18] = target: Gal3S6S(b1-4)GlcNAc6S
# How it was run: as §1
# [19] = target: Gal6S(b1-4)Glc6S
# How it was run: as §1
# [20] = target: GalNAc(a1-3)GalNAc(b1-3)Gal(a1-4)Gal(b1-4)Glc
# How it was run: as §1
# [21] = target: GalNAc(a1-3)GalNAc(b1-3)Gal(a1-4)Gal(b1-4)GlcNAc
# How it was run: as §1
# [22] = target: GalNAc(b1-4)GlcNAc
# How it was run: as §1
# [23] = target: GalNAc(b1-4)GlcNAc(b1-3)GalNAc(b1-4)GlcNAc
# How it was run: as §1
# [24] = target: GalNAc(b1-4)GlcNAc6S
# How it was run: as §1
# [25] = target: GlcA(b1-3)Gal
# How it was run: as §1
# [26] = target: GlcNAc(a1-4)Gal(b1-4)GlcNAc(b1-3)Gal(b1-4)GlcNAc
# How it was run: as §1
# [27] = target: GlcNAc(b1-2)Gal(b1-3)GalNAc
# How it was run: as §1
# [28] = target: GlcNAc(b1-3)Gal(b1-4)GlcNAc(b1-3)Gal(b1-4)GlcNAc(b1-2)Man(a1-3)[GlcNAc(b1-3)Gal(b1-4)GlcNAc(b1-3)Gal(b1-4)GlcNAc(b1-2)Man(a1-6)]Man(b1-4)GlcNAc(b1-4)GlcNAc
# How it was run: as §1
# [29] = target: GlcNAc(b1-3)Gal(b1-4)GlcNAc(b1-3)Gal(b1-4)GlcNAc(b1-3)Gal(b1-4)GlcNAc(b1-2)[GlcNAc(b1-3)Gal(b1-4)GlcNAc(b1-3)Gal(b1-4)GlcNAc(b1-3)Gal(b1-4)GlcNAc(b1-6)]Man(a1-6)[GlcNAc(b1-3)Gal(b1-4)GlcNAc(b1-3)Gal(b1-4)GlcNAc(b1-3)Gal(b1-4)GlcNAc(b1-2)Man(a1-3)]Man(b1-4)GlcNAc(b1-4)[Fuc(a1-6)]GlcNAc
# How it was run: as §1
# [30] = target: GlcNAc(b1-3)Gal(b1-4)GlcNAc(b1-3)[GlcNAc(b1-3)Gal(b1-4)GlcNAc(b1-3)]GalNAc
# How it was run: as §1
# [31] = target: GlcNAc(b1-3)[GlcNAc(b1-6)]Gal(b1-4)GlcNAc
# How it was run: as §1
# [32] = target: GlcNAc(b1-4)GlcNAc
# How it was run: as §1
# [33] = target: Kdn(a2-3)Gal(b1-3)GalNAc
# How it was run: as §1
# [34] = target: Man(a1-2)Man(a1-3)[Man(a1-6)]Man(a1-6)[Man(a1-2)Man(a1-3)]Man(b1-4)GlcNAc(b1-4)GlcNAc
# How it was run: as §1
# [35] = target: Neu5Ac(a2-3)Gal(b1-3)[Neu5Ac(a2-6)]GalNAc
# How it was run: as §1
# [36] = target: Neu5Ac(a2-3)Gal(b1-4)GlcNAc(b1-2)Man(a1-3)[GlcNAc(b1-4)][Neu5Ac(a2-3)Gal(b1-4)GlcNAc(b1-2)Man(a1-6)]Man(b1-4)GlcNAc(b1-4)GlcNAc
# How it was run: as §1
# [37] = target: Neu5Ac(a2-3)Gal(b1-4)GlcNAc(b1-6)GalNAc
# How it was run: as §1
# [38] = target: Neu5Ac(a2-3)Gal(b1-4)[Fuc(a1-3)]GlcNAc(b1-6)[Gal(b1-3)]GalNAc
# How it was run: as §1
# [39] = target: Neu5Ac(a2-3)[GalNAc(b1-4)]Gal(b1-4)Glc
# How it was run: as §1
# [40] = target: Neu5Ac(a2-6)Gal(b1-4)GlcNAc(b1-6)[Gal(b1-3)GlcNAc(b1-3)]Gal(b1-4)Glc
# How it was run: as §1
# [41] = target: Neu5Ac(a2-6)GalNAc
# How it was run: as §1
# [42] = target: Neu5Ac(a2-6)GalNAc(b1-4)GlcNAc6S
# How it was run: as §1
# [43] = target: Neu5Ac(a2-8)Neu5Ac(a2-3)Gal(b1-4)Glc
# How it was run: as §1
# [44] = target: Neu5Ac(a2-8)Neu5Ac(a2-3)[GalNAc(b1-4)]Gal(b1-4)Glc
# How it was run: as §1
# [45] = target: Neu5Gc(a2-8)Neu5Gc(a2-3)Gal(b1-4)GlcNAc
# How it was run: as §1
binder,measurement,setting,value
B1,glycan array binding signal (z-score),[1],-0.517
same,glycan array binding signal (z-score),[2],0.129
same,glycan array binding signal (z-score),[3],-0.516
same,glycan array binding signal (z-score),[4],-0.109
same,glycan array binding signal (z-score),[5],3.54
same,glycan array binding signal (z-score),[6],3.37
same,glycan array binding signal (z-score),[7],-0.347
same,glycan array binding signal (z-score),[8],-0.396
same,glycan array binding signal (z-score),[9],-0.491
same,glycan array binding signal (z-score),[10],-0.491
same,glycan array binding signal (z-score),[11],-0.317
same,glycan array binding signal (z-score),[12],-0.58
same,glycan array binding signal (z-score),[13],-0.51
same,glycan array binding signal (z-score),[14],-0.487
same,glycan array binding signal (z-score),[15],-0.539
same,glycan array binding signal (z-score),[16],-0.475
same,glycan array binding signal (z-score),[17],-0.244
same,glycan array binding signal (z-score),[18],1.25
same,glycan array binding signal (z-score),[19],0.296
same,glycan array binding signal (z-score),[20],3.29
same,glycan array binding signal (z-score),[21],3.61
same,glycan array binding signal (z-score),[22],3.28
same,glycan array binding signal (z-score),[23],3.33
same,glycan array binding signal (z-score),[24],3.26
same,glycan array binding signal (z-score),[25],-0.464
same,glycan array binding signal (z-score),[26],-0.539
same,glycan array binding signal (z-score),[27],-0.379
same,glycan array binding signal (z-score),[28],-0.171
same,glycan array binding signal (z-score),[29],-0.561
same,glycan array binding signal (z-score),[30],-0.432
same,glycan array binding signal (z-score),[31],-0.552
same,glycan array binding signal (z-score),[32],-0.331
same,glycan array binding signal (z-score),[33],-0.358
same,glycan array binding signal (z-score),[34],-0.487
same,glycan array binding signal (z-score),[35],-0.237
same,glycan array binding signal (z-score),[36],-0.561
same,glycan array binding signal (z-score),[37],3.4
same,glycan array binding signal (z-score),[38],-0.548
same,glycan array binding signal (z-score),[39],3.36
same,glycan array binding signal (z-score),[40],-0.387
same,glycan array binding signal (z-score),[41],3.24
same,glycan array binding signal (z-score),[42],3.51
same,glycan array binding signal (z-score),[43],-0.403
same,glycan array binding signal (z-score),[44],3.09
same,glycan array binding signal (z-score),[45],-0.454
